# Laboratory results reported in PMC12136788.
# This is one part of the list.
# B1: chr4:138167974:138168075:-|3pUTR|ENSG00000151012|msi1|FALSE|unique (ssRNA)
# RNA: GGGAGUUCUACAGUCCGACGAUCCACAAAAUCUGCAUUGUCCAUGUGAGUAAAGUAAAAUAAUUCCUGUUAUUUUUUUCUGUUAGAAAUAAGUAUGGAGGAUAUGUUUUUAAAAAUUUAUGAGUUAAUUGAAAUAUCCAUAUACAACAGAGGAUUGAGCAUCA
# B2: chr8:120459219:120459329:+|CDS|ENSG00000172167|unk|total|mutant (ssRNA)
# RNA: GGGAGUUCUACAGUCCGACGAUCUUUGGAUUUGAAAUCCGUUUUCCUGAAUUUUGUUUAAAGGGAGUCACACUUAAGAAUUUCCGUACUUCUAAUUUAAAUACUGACUUCCUUGCCAAAAAGAUCAUACCAUCAAAGGAUAAGCAACAGAGGAUUGAGCAUCA
# B3: chr1:89935720:89935824:+|3pUTR|ENSG00000171492|msi1|FALSE|bound_elsewhere (ssRNA)
# RNA: GGGAGUUCUACAGUCCGACGAUCUACAAGAUAAUGCAUUUUAGGAGUAGAUACAUCUUUUAAAAUAAAACAGAGAGGAUGCAUAGAAGGCUGAUAGAAGACAUAACUGAAUGUUCAAUGUUUGUAGGGUUUUAAGUCAUUCAUCAACAGAGGAUUGAGCAUCA
# B4: ENSG00000198589:be:win_5501|CDS|ENSG00000198589|bound_else_gene|NA|bound_elsewhere_windowed (ssRNA)
# RNA: GGGAGUUCUACAGUCCGACGAUCUGCUUAUAGAAGGAACAAGUCUGGUUUGCAUGAAGUCGAGUAGUUCAGUUGUGGAAUUGGUUAUGCUACUGUGUUCUCAGGAGUGGCAAAAUUCUAUUCAGAAGAAUGCAGGCCUUGCUUCAACAGAGGAUUGAGCAUCA
# B5: chr8:65724783:65724899:-|CDS|ENSG00000205268|unk|FALSE|unique (ssRNA)
# RNA: GGGAGUUCUACAGUCCGACGAUCAUAGGUGCUCUGAUACUAGCCACAGACAUCAGUCGCCAGAAUGAGUAUCUGUCUUUGUUUAGGUCCCAUUUGGAUAGAGGUGAUUUAUGCCUAGAAGACACCAGACACAGACAUUUGGUUCAACAGAGGAUUGAGCAUCA
# B6: chr7:74195289:74195308:+|CDS_3pUTR|ENSG00000106682|msi1_unk|FALSE|overlapping (ssRNA)
# RNA: GGGAGUUCUACAGUCCGACGAUCGCGACGCCCCUCAAUCAAGUAGCCAAUCCCAACUCUGCUAUCUUCGGGGGUGCCAGGCCUAGAGAGGAAGUCGUUCAAAAGGAGCAAGAAUGAGCCUGCGGUUGGGAGGGAAUGGGGCGUCAACAGAGGAUUGAGCAUCA
# B7: chr12:27755550:27755651:+|3pUTR|ENSG00000061794|msi1|FALSE|unique (ssRNA)
# RNA: GGGAGUUCUACAGUCCGACGAUCAUACUAAUGCUUAAUGGCAAUGAUUACUCCAGAGUUUUUUAAUUUUUACACUGGGGCAAUAGACUAGGAGGUCUCUGAUUUCUUCUUGGUCUAAAGUGUUUUGAUUUUAUUUCUACAUAACAACAGAGGAUUGAGCAUCA
# B8: chr12:48782793:48782894:-|CDS|ENSG00000174233|msi1|total|mutant (ssRNA)
# RNA: GGGAGUUCUACAGUCCGACGAUCGCACUGUUGGCCUGUGCCGCCGCCCUGUUCGUGGGGCUCAUGGUGGUGUGUAACCGGCACCGCUUCCGCCAGGACUCCAUGUGGGUGGUGAGCUACGUGGUGCUGGGCAUCCUGGCGGCACAACAGAGGAUUGAGCAUCA
# B9: chr10:96982068:96982170:+|CDS|ENSG00000196233|unk|FALSE|unique (ssRNA)
# RNA: GGGAGUUCUACAGUCCGACGAUCUCAGCAUUGGCAUCAGAGGCAGUUUUCACUCCUAAGCAGACCCUUACAAUUCCAGCCCCUAGACAUACAGUAGAUGUGCAGCUUCCCAGAGAAGACAACCCUGAAGAACCUAGCAAGGAACAACAGAGGAUUGAGCAUCA
# B10: chr12:98549999:98550103:+|3pUTR|ENSG00000120802|unk|total|mutant (ssRNA)
# RNA: GGGAGUUCUACAGUCCGACGAUCUGUUUCCCAUACUGUUUUCAGCCUUUUGUUUAUAAUCCGAAAUUGUGAGAAGCUUCAUUCCGUGUUUAAAAAUGUGGGGAGAUAAAUCAGACUUAACAUGUAUGUAAGAUCAAUUCACUUCAACAGAGGAUUGAGCAUCA
# B11: chrX:65741246:65741425:+|3pUTR|ENSG00000147065|msi1|total|mutant (ssRNA)
# RNA: GGGAGUUCUACAGUCCGACGAUCUAUUAUGUACUCUACUGAUAUCUAAAUAUUGAUUUCUGCCUUCCUUGCUAAUGCACCAUCCGAAGAUAUCCGUCUUGGGGCAGGAUGAUUUUGGCCUCAUUACUUUACCACCCCCACACCCAACAGAGGAUUGAGCAUCA
# B12: chr4:121668310:121668420:-|3pUTR|ENSG00000164111|msi1_unk|total|mutant (ssRNA)
# RNA: GGGAGUUCUACAGUCCGACGAUCCCUUCAGCACCUUCCGCUGCAUUUGUAUGCCAGUGCUUAACACAUUGCCUUAUUCAUACCCGCAUGCUCAUGACCAACACAUACACGUCACCGAAGAAAACCGUGGUGCUUCUUUCUGAUCAACAGAGGAUUGAGCAUCA
# B13: chr5:43486917:43487111:-|CDS|ENSG00000172244|control|control|control (ssRNA)
# RNA: GGGAGUUCUACAGUCCGACGAUCUUAUAAACCAGGAUCUUCAGAAACCUUGCUAGGAGAAGUUAAUGAAAAUAGAGUAUCAAUAGCAUUGAAAAAAACCUCUGAAAUCCUUCACGAUAUUGACUGUCUUCUAUCAAACUCUAACAACAGAGGAUUGAGCAUCA
# B14: chr16:31131432:31132008:-|three_prime_utr|ENSG00000052344|control|control|control (ssRNA)
# RNA: GGGAGUUCUACAGUCCGACGAUCCCAUUCUUCUGGGUGUGCUUUUUGGGACCAUCACUGAGAGUCAGGAGUUUUACUGCCUGUAGCAAUGGCCAGAGCCUCUGGCCCCUCACCCACCAUGGACCAGCCCAUUGGCCGAGCUCCCAACAGAGGAUUGAGCAUCA
# B15: chr7:56063203:56063317:+|3pUTR|ENSG00000146731|unk|FALSE|unique (ssRNA)
# RNA: GGGAGUUCUACAGUCCGACGAUCCCCAUAUGAAAAAAGGAGAGAACACUGGCAUCUGUUGAAAUUUGGAAGUUCUGAAAUUAUAGUAUUUUUAAAAAUUGCACUGAAGUGUAUACACAUAAAGCAGGUCUUUUAUCCAGUGAACAACAGAGGAUUGAGCAUCA
# B16: chr10:121967677:121967791:-|CDS|ENSG00000107672|unk|total|mutant (ssRNA)
# RNA: GGGAGUUCUACAGUCCGACGAUCAAAUCCGCCCGAAGCUGAAGAACUCAUCCGUGAUGAAGACCGUCCUGAUUUUGAAUUCACCGUCUAUGACUCCUGGAAGAUAACAGGCAGAACAGCAGAAAACACCUUUAAUAAAACCCACAACAGAGGAUUGAGCAUCA
# B17: chr8:88032264:88032379:-|3pUTR|ENSG00000156103|unk|total|mutant (ssRNA)
# RNA: GGGAGUUCUACAGUCCGACGAUCACUCCUUAUAAUGUUGCGUCAUUAAAGGUCAAGGGGUCAUGCUAUUAAUCUCAUUGCUACCGACCAUUAACAUGACUGAACUUUUCCACAAAGUACUUAUGUUUACAAUGCUAUAACCCUCAACAGAGGAUUGAGCAUCA
# B18: chr1:232398519:232398625:-|3pUTR|ENSG00000116991|unk|total|mutant (ssRNA)
# RNA: GGGAGUUCUACAGUCCGACGAUCACAGCCGUUUUAUUUCCACAGCCACAUUACCACCGCAAUAAGAAAGGAGGCACCGUACACCGUUGGAAAAGCUUUGUGGGGGGAUUAAAAAAAAAAAAAAGCACUGUUGUGUUUAACACUCAACAGAGGAUUGAGCAUCA
# B19: ENSG00000107863:be:win_6351|3pUTR|ENSG00000107863|bound_else_gene|NA|bound_elsewhere_windowed (ssRNA)
# RNA: GGGAGUUCUACAGUCCGACGAUCGAACUUCCAUUCUUUAGUCAUUCCAGGUGGAUCUGAGUUUUAUAUUCAAACUUUUAAUACAGUUUUUGAGUUUUGUGUGACUUGAAUUUUUAAUCUUUCUGUAAAAUACGUAACUUAAAUCAACAGAGGAUUGAGCAUCA
# B20: chr11:134151495:134151596:+|3pUTR|ENSG00000166086|unk|total|mutant (ssRNA)
# RNA: GGGAGUUCUACAGUCCGACGAUCCCGUGCCAUGGGAACCAGGUCUGAAAAAGCCGAGAGAAGUGAAAGCCGAGUCUGGGAAGCCGCUGCCUAUAACUGAGACCCGACGGAAAAGGAAUACUCGUGUAUUUUAAGAUAUGAAUGCAACAGAGGAUUGAGCAUCA
# B21: chr12:39553730:39553837:-|3pUTR|ENSG00000173208|unk|total|mutant (ssRNA)
# RNA: GGGAGUUCUACAGUCCGACGAUCGAAGUAUGUUAAGCUAAGCACAGAGAAAAAAAGGCAGCAAGACAUGUUUUAUAAGAUUUCCGCAUUAAGGAAGUAUAUGAUCUGACUUUUCAGAAGAAAAUAAACAAAUGCAUUAUGUAACAACAGAGGAUUGAGCAUCA
# B22: chr7:127373434:127373542:-|CDS|ENSG00000048405|unk|total|mutant (ssRNA)
# RNA: GGGAGUUCUACAGUCCGACGAUCAAAACACCGUGAUUCAAAACAUGAUGGCACUUCUAACUCUCCCCGUAAAAAGUAUGAAGCCGCUGACGUCGGUAUUGAAGUAAAAGUCACAAAAAACUUUUCUCUUCACAGAUGCAAUAACAACAGAGGAUUGAGCAUCA
# Biological target: MSI1 full-length (mouse, UniProt Q61474 1-362)
# UniProt Q61474, sequence (Q61474 whole entry): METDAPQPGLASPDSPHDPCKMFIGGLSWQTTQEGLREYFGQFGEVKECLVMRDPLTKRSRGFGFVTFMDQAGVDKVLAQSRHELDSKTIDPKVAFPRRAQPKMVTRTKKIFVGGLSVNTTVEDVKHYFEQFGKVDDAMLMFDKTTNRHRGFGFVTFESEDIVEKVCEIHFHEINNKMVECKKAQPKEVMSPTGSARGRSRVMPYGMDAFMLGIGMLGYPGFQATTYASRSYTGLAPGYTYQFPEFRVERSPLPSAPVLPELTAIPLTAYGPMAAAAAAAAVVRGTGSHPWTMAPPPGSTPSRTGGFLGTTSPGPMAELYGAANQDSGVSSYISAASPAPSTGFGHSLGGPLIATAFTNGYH
# Experiment: nsRBNS (natural sequence RNA bind-n-seq); RBNS binding buffer (assumed for nsRBNS): 25 mM Tris pH 7.5, 150 mM KCl, 3 mM MgCl2, 0.01% Triton X-100, 500 ug/ml BSA, 20 U/ml SUPERase-In, 4 C; UNK is unkempt and MSI1 is Musashi-1; names of the RNAs are library labels; protein concentration not given here; high values mean tight binding
row,Binder,binding signal [enrichment R]
1,B1,1.68
2,B2,0.651
3,B3,3.59
4,B4,0.522
5,B5,0.912
6,B6,0.558
7,B7,0.471
8,B8,0.346
9,B9,1.72
10,B10,0.426
11,B11,0.602
12,B12,0.594
13,B13,1.89
14,B14,0.442
15,B15,1.36
16,B16,0.51
17,B17,0.588
18,B18,0.46
19,B19,4.05
20,B20,0.432
21,B21,0.772
22,B22,0.241
